# From ChEMBL document CHEMBL5606460, “ASAP - DENV-2 NS2B-NS3 protease fluorescence single point” (2024)
# In all, about 2,000 compounds went through this assay and about 110 (5.5%) showed an effect of 50% or more. This is one part of the list.
# Target: Genome polyprotein (dengue virus type 2) (UniProt P29990)
# [1] = Thailand/16681/1984, Concentration 25.0 uM, Number of replicates 1.0
smiles,measurement,setting,value
O=Cc1ccc(N2CCC(C(=O)N[C@H](c3ccccc3)c3ccco3)CC2)cc1,inhibition,[1],10.1%
c1ccc2c([C@H]3CCN(CC4CCOCC4)C3)c[nH]c2c1,inhibition,"Thailand/16681/1984, Concentration 49.5 uM, Number of replicates 2.0, Standard deviation 3.3259684587077474 %",-2.08%
same,inhibition,"Thailand/16681/1984, Concentration 99.01 uM, Number of replicates 2.0, Standard deviation 2.8143910019334557 %",-1.51%
same,inhibition,"Thailand/16681/1984, Concentration 198.0 uM, Number of replicates 2.0, Standard deviation 3.0084374948479766 %",-0.345%
O=Cc1ccc(N2CCC(C(=O)NC3CN(C(c4ccccc4)c4ccccc4)C3)CC2)cc1,inhibition,[1],2.62%
CCCC[C@H](NC(C)=O)C(=O)N[C@H](C(=O)NCc1ccc(C(N)=O)cc1)c1ccc(OCc2ccccc2)cc1,inhibition,"Thailand/16681/1984, Concentration 49.5 uM, Number of replicates 2.0, Standard deviation 4.54767597440597 %",18.2%
same,inhibition,"Thailand/16681/1984, Concentration 99.01 uM, Number of replicates 2.0, Standard deviation 0.08657569598756192 %",99.9%
same,inhibition,"Thailand/16681/1984, Concentration 198.0 uM, Number of replicates 2.0, Standard deviation 0.08274539039489186 %",99.7%
Cn1cc(NC(=O)c2ccccc2C(F)(F)F)c(-c2ccc(O)cc2)n1,inhibition,"Thailand/16681/1984, Concentration 49.5 uM, Number of replicates 2.0, Standard deviation 1.4149767575059302 %",-3.58%
same,inhibition,"Thailand/16681/1984, Concentration 99.01 uM, Number of replicates 2.0, Standard deviation 0.6191126751592 %",-2.21%
same,inhibition,"Thailand/16681/1984, Concentration 198.0 uM, Number of replicates 2.0, Standard deviation 0.2617465963559337 %",-3.21%
CC(C)Nc1nc2ccc(C(=O)Nc3ccc(-c4cc[nH]c4)cc3)cc2[nH]1,inhibition,"Thailand/16681/1984, Concentration 49.5 uM, Number of replicates 2.0, Standard deviation 2.5624181333066525 %",4.33%
same,inhibition,"Thailand/16681/1984, Concentration 99.01 uM, Number of replicates 2.0, Standard deviation 1.869489889133958 %",9.53%
same,inhibition,"Thailand/16681/1984, Concentration 198.0 uM, Number of replicates 2.0, Standard deviation 0.5444811431585344 %",3.37%
Cc1cc(N)cc(CNC(=O)Cc2cccc3c(CO)cc(C)nc23)c1,inhibition,"Thailand/16681/1984, Concentration 49.95 uM, Number of replicates 2.0, Standard deviation 0.21775017554498763 %",39.7%
same,inhibition,"Thailand/16681/1984, Concentration 99.9 uM, Number of replicates 2.0, Standard deviation 1.7887257377938661 %",61.7%
O=Cc1ccc(N2CCC(C(=O)N[C@H]3CC(=O)N(c4ccccc4Cl)C3)CC2)cc1,inhibition,[1],14.7%
Cc1ccc2[nH]cc(CCNC(=O)C3CCN(c4ccc(C=O)cc4)CC3)c2c1,inhibition,[1],13.2%
CNC(=O)c1cc(Cl)ccc1N(C)S(=O)(=O)c1ccc(Oc2ccccc2Cl)cc1,inhibition,"Thailand/16681/1984, Concentration 49.5 uM, Number of replicates 2.0, Standard deviation 1.1912141654334696 %",-2.39%
same,inhibition,"Thailand/16681/1984, Concentration 99.01 uM, Number of replicates 2.0, Standard deviation 1.3706697565683075 %",-0.121%
same,inhibition,"Thailand/16681/1984, Concentration 198.0 uM, Number of replicates 2.0, Standard deviation 0.031456216092408736 %",3.32%
NCc1cccc(NC(=O)[C@@H](NC(=O)OCc2ccccc2)c2ccc(Br)cc2)c1,inhibition,"Thailand/16681/1984, Concentration 49.5 uM, Number of replicates 2.0, Standard deviation 0.0939294781157427 %",-4.11%
same,inhibition,"Thailand/16681/1984, Concentration 99.01 uM, Number of replicates 2.0, Standard deviation 0.02096957442071617 %",99.8%
same,inhibition,"Thailand/16681/1984, Concentration 198.0 uM, Number of replicates 2.0, Standard deviation 0.044447729264800756 %",99.8%
Cn1cc(CNC(=O)c2ccccc2-c2ccccn2)cn1,inhibition,"Thailand/16681/1984, Concentration 49.5 uM, Number of replicates 2.0, Standard deviation 0.6305384329094122 %",-4.1%
same,inhibition,"Thailand/16681/1984, Concentration 99.01 uM, Number of replicates 2.0, Standard deviation 1.5818396710958347 %",-3.63%
same,inhibition,"Thailand/16681/1984, Concentration 198.0 uM, Number of replicates 2.0, Standard deviation 13.69923462321725 %",5.85%
CCn1ccnc(N[C@@H](Cc2c[nH]c3ccccc23)C(N)=O)c1=O,inhibition,"Thailand/16681/1984, Concentration 49.5 uM, Number of replicates 2.0, Standard deviation 0.3575077765079599 %",-4.37%
same,inhibition,"Thailand/16681/1984, Concentration 99.01 uM, Number of replicates 2.0, Standard deviation 0.6094538818859584 %",-2.79%
same,inhibition,"Thailand/16681/1984, Concentration 198.0 uM, Number of replicates 2.0, Standard deviation 0.016494021650768593 %",-0.419%
O=Cc1ccc(N2CCC(C(=O)N(CC3CC3)C[C@H]3CCCO3)CC2)cc1,inhibition,[1],15.1%
COc1ccccc1CN(CCCO)C(=O)C1CCN(c2ccc(C=O)cc2)CC1,inhibition,[1],12.9%
CNC(=O)C[C@@H](C)NS(=O)(=O)c1ccc(Oc2ccccc2Cl)cc1,inhibition,"Thailand/16681/1984, Concentration 49.5 uM, Number of replicates 2.0, Standard deviation 1.3030195128486834 %",0.058%
same,inhibition,"Thailand/16681/1984, Concentration 99.01 uM, Number of replicates 2.0, Standard deviation 1.4693139392091605 %",1.01%
same,inhibition,"Thailand/16681/1984, Concentration 198.0 uM, Number of replicates 2.0, Standard deviation 0.5754244321045655 %",1.94%
C[C@H](NC(=O)C1CCN(c2ccc(C=O)cc2)CC1)c1ccccc1-n1cccn1,inhibition,[1],13.8%
CN(Cc1ccccc1Br)C(=O)C1CCN(c2ccc(C=O)cc2)CC1,inhibition,[1],14.2%
Cc1cc(CO)c2cccc(Cc3ccccc3NC(=O)CNC3CC3)c2n1,inhibition,"Thailand/16681/1984, Concentration 49.95 uM, Number of replicates 2.0, Standard deviation 1.188088976616387 %",6.18%
same,inhibition,"Thailand/16681/1984, Concentration 99.9 uM, Number of replicates 2.0, Standard deviation 0.5753510122944595 %",19.1%
Cn1cc(CNC(=O)c2ccccc2[C@@H]2CCCNC2)cn1,inhibition,"Thailand/16681/1984, Concentration 49.5 uM, Number of replicates 2.0, Standard deviation 2.319552439999781 %",-2.27%
same,inhibition,"Thailand/16681/1984, Concentration 99.01 uM, Number of replicates 2.0, Standard deviation 2.7533538173819676 %",-1.97%
same,inhibition,"Thailand/16681/1984, Concentration 198.0 uM, Number of replicates 2.0, Standard deviation 0.9200576529447512 %",-0.355%
Cc1cc(N)c2cc(Cl)cc(Cl)c2n1,inhibition,"Thailand/16681/1984, Concentration 49.95 uM, Number of replicates 2.0, Standard deviation 6.409809046838655 %",-7.04%
same,inhibition,"Thailand/16681/1984, Concentration 99.9 uM, Number of replicates 2.0, Standard deviation 7.891337195429833 %",-3.92%
